# According to the supplement of paper PMC8512760:
# The other results are listed elsewhere or left out. Single values are uncertain, as repeats are few or missing.
# System: SUM-149
# Assay: cell viability relative to vehicle (% of vehicle); basal-like triple-negative breast cancer lines; higher = less cytotoxic
# Conditions: 10 µM; 72 h
# 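Note: stably firefly luciferase-GFP labeled cells in 96-well plates, viability read as luciferase photon flux after d-luciferin addition, treated wells normalized to vehicle wells, single-dose high-throughput screen.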
row,SMILES,cell viability
1,NC(=O)c1cnccn1 [Pyrazinamide],107
2,COC(=O)C1=C(C)NC(C)=C(C(=O)OCCN(C)Cc2ccccc2)C1c1cccc([N+](=O)[O-])c1.Cl (configuration not stated) [Nicardipine HCl],89.4
3,COc1ccc(CN(CCN(C)C)c2ccccn2)cc1.O=C(O)/C=C\C(=O)O [Mepyramine maleate],120
4,CCN1CCCC1CNC(=O)c1cc(S(=O)(=O)CC)c(N)cc1OC (configuration not stated) [Amisulpride],109
5,Cc1ccc(NC(=O)c2ccc(CN3CCN(C)CC3)cc2)cc1Nc1nccc(-c2cccnc2)n1 [Imatinib (STI571)],104
6,CC1(C)SC2C(NC(=O)C(N)c3ccccc3)C(=O)N2C1C(=O)O.O.O.O (configuration not stated) [Ampicillin Trihydrate],122
7,Nc1ccn(CC(CO)OCP(=O)(O)O)c(=O)n1.O.O (configuration not stated) [Cidofovir dihydrate],111
8,Cc1c(OCC(F)(F)F)ccnc1CS(=O)c1nc2ccccc2[nH]1 (configuration not stated) [Dexlansoprazole],193
9,CNC(=O)CN(CCN(CCN(CC(=O)[O-])CC(=O)NC)CC(=O)[O-])CC(=O)[O-].O.[Gd+3] [Gadodiamide],86.1
10,Cc1c(OCC(F)(F)F)ccnc1CS(=O)c1nc2ccccc2[nH]1 (configuration not stated) [Lansoprazole],157
11,CN(C)CCc1c[nH]c2ccc(CS(=O)(=O)N3CCCC3)cc12.O=C(O)CC(O)C(=O)O [Almotriptan Malate],87.5
12,Cl.NNc1nncc2ccccc12 [Hydralazine HCl],63
13,O=C(O)c1ccccc1 [Benzoic Acid],102
14,CC(C)(OCc1nn(Cc2ccccc2)c2ccccc12)C(=O)O [Bindarit],121
15,Clc1ccc(COC(Cn2ccnc2)c2ccc(Cl)cc2Cl)c(Cl)c1.O=[N+]([O-])O (configuration not stated) [Miconazole Nitrate],117
16,Nc1nc2ccc(OC(F)(F)F)cc2s1 [Riluzole],184

row,SMILES,cell viability
1,CN1C(C(=O)Nc2ccccn2)=C(O)c2sccc2S1(=O)=O [Tenoxicam],116
2,COC(=O)CCc1ccc(OCC(O)CNC(C)C)cc1.Cl (configuration not stated) [Esmolol HCl],105
3,Cc1c(OCC(F)(F)F)ccnc1CS(=O)c1nc2ccccc2[n-]1.[Na+] (configuration not stated) [Lansoprazole sodium],142
4,CC12C=CC(=O)C=C1CCC1C2C(O)CC2(C)C1CCC2(O)C(=O)CO (configuration not stated) [Prednisolone],169
5,CS(=O)(=O)O.CS(=O)(=O)O.N=C(N)c1ccc2cc(OC(=O)c3ccc(N=C(N)N)cc3)ccc2c1 [Nafamostat Mesylate(FUT-175)],78
6,Cl.c1ccc2c(c1)CCCC2C1=NCCN1 (configuration not stated) [Tetrahydrozoline HCl],87.1
7,Cc1cn(C2CC(O)C(CO)O2)c(=O)[nH]c1=O (configuration not stated) [Telbivudine],117
8,O=c1c(-c2ccc(O)cc2)coc2cc(O)cc(O)c12 [Genistein],138
9,OC(Cn1cncn1)(Cn1cncn1)c1ccc(F)cc1F [Fluconazole hydrate],105
10,CCCCc1oc2ccc(NS(C)(=O)=O)cc2c1C(=O)c1ccc(OCCCN(CCCC)CCCC)cc1 [Dronedarone],127
11,CCCCCOc1ccc(-c2cc(-c3ccc(C(=O)NC4CC(O)C(O)NC(=O)C5C(O)C(C)CN5C(=O)C(C(O)CC(N)=O)NC(=O)C(C(O)C(O)c5ccc(O)c(OS(=O)(=O)[O-])c5)NC(=O)C5CC(O)CN5C(=O)C(C(C)O)NC4=O)cc3)no2)cc1.[Na+] (configuration not stated) [Micafungin sodium],109
12,OC(Cn1cncn1)(Cn1cncn1)c1ccc(F)cc1F [Fluconazole],115
13,CC(C)NCC(O)COc1ccc(CCOCC2CC2)cc1.Cl (configuration not stated) [Levobetaxolol HCl],102
14,CS(=O)(=O)O.Cc1ccc(NC(=O)c2ccc(CN3CCN(C)CC3)cc2)cc1Nc1nccc(-c2cccnc2)n1 [Imatinib Mesylate (STI571)],108
15,CCC(=O)OCC(=O)C1(OC(=O)CC)C(C)CC2C3CCC4=CC(=O)C=CC4(C)C3(Cl)C(O)CC21C (configuration not stated) [Beclomethasone dipropionate],167
16,CCOc1ccc(NC(C)=O)cc1 [Phenacetin],136
